Among all 150,000 compounds or so, about 540 (0.36%) showed an effect of 50% or more. Some of the results follow.
What follows are compounds tested on Plasmodium falciparum (assay: Primary screen in NF54 nanoGlo assay, in single point, at 2uM, 72h; a lower Z score goes with more inhibition). Conditions: timepoint 72 hour.
Format: functional, Erythrocyte

SMILES | % Inhibition | Z score
Cc1cc(C)c2c(C)c(C(=O)NC[C@@H](c3ccco3)N3CCCC3)oc2c1 | 12% | -1.36
Cn1ccnc1CN(C(=O)C1CC(c2ccc(F)cc2)C1)[C@H]1CC12CCNCC2 (stereo partly drawn) | -5% | 0.61
COc1ccc(-n2ccnc(NC(=O)c3ccc(F)cc3)c2=O)c(C)c1 | -11% | 1.43
Cc1cc(C)c2oc(N3CCn4cnnc4[C@@H]3C)nc2c1 | -2% | 0.35
Cc1nccnc1CCNC(=O)N1CC2CCCCC2C1 (stereo not drawn) | 1% | -0.18
O=C(NC1CC1)c1ccccc1NC(=O)c1cccc[n+]1[O-] | 8% | -1.2
Cc1cc(NC(=O)CN(C)C2CCCCCC2)on1 | 11% | -1
O=C(c1cn[nH]c1)N1C[C@@H]2[C@@](C(F)(F)F)(CCCS2(=O)=O)C1 | -13% | 2.33
CCCCCC(=O)N[C@H]1CCN(Cc2c(C)noc2C)C[C@@H]1O | -22% | 1.98
CC(C)c1cc(C(=O)N[C@H]2[C@@H]3COC[C@@H]32)no1 | -10% | 1.59
CO[C@H]1[C@H](NC(=O)COc2ccccc2)c2ccccc2C12CCN(C(=O)c1c(C)noc1C)CC2 | -7% | 1.24
CC(C)Nc1ccc(C(F)(F)F)cn1 | -1% | 0.29
COC(=O)CC(=O)Nc1ccccc1Cl | -17% | 1.58
O=C(NCc1cccc(Cl)c1)c1cc2n(n1)C[C@@H](c1ccc3c(c1)OCO3)OC2 | -19% | 3.24
C=CCCCC(C)NC(=O)N1CC(C)OC(CO)C1 (stereo not drawn) | -11% | 1.18
Cn1cccc1C(=O)NCC1(C)CCOCC1 | -7% | 1.27
COC(=O)c1cc2n(n1)CCN(Cc1ccc(OC)cc1)C2=O | -6% | 1.19
COc1cc(F)cc2sc(NC(=O)C(C)(C)n3cc(Cl)cn3)nc12 | 4% | -0.46
COc1ccc(NC(=O)N[C@H]2CC(=O)N(c3ccc4c(c3)OCCO4)C2)c(OC)c1 | 1% | -0.17
Cc1occc1CN(C)C(=O)Nc1cnsn1 | 12% | -1.16
COCCc1noc([C@@H]2CCCN2Cc2nnc(C)s2)n1 | -2% | 0.26

SMILES | % Inhibition | Z score
O=C1NCCN1CCn1cc([C@H]2CCOC2)nn1 | -7% | 1.18
CN(C)C(=O)c1cccc(NC(=O)c2cc(F)c(F)c(F)c2)n1 | -2% | 0.38
COc1ccnc(C(=O)NC(c2ccccn2)[C@H]2C[C@H](O)C2)c1 (stereo partly drawn) | -6% | 0.7
Cc1nc(-c2cccc(CNc3nnc(C)c(C)n3)c2)cs1 | -5% | 0.93
CCOc1cccc(CCNC(=O)c2cn[nH]c2C)n1 | 5% | -0.74
COc1cc(C(=O)N[C@H]2CC[C@@H](C(=O)N3CCOCC3)C2)ccn1 | -1% | 0.16
O=C(NCc1ccc(F)cc1)N1CC[C@@H]2COC(=O)N(Cc3ccccc3)[C@@H]2C1 | -14% | 1.82
Cc1nc(N2CCN(Cc3ccoc3)[C@@H](CCO)C2)c2cnn(C)c2n1 | 5% | -0.88
CC(NC(=O)C1CC2CCC1O2)c1ccon1 (stereo not drawn) | 2% | -0.36
COc1ccc(OC)c(-c2ccc(C(=O)N3C[C@@H](C)O[C@@H](C)C3)c(N3CCN(C)CC3)n2)c1 | 1% | -0.19
COC(C)(C)c1noc(-c2cnn(CC(C)C)c2C(F)F)n1 | -12% | 1.36
COc1cc2cc(c1)C(=O)NCCCC(=O)N[C@H]1CN(C(=O)c3noc4c3CCCC4)CC[C@@H]1OCc1cccc(c1)O2 | -6% | 1.16
Cc1nc(CN2CCC(N3C[C@H](COc4ccc(F)cc4)OCC3=O)CC2)no1 | 8% | -0.77
Cc1ccoc1C(=O)NCCCNC(=O)NCc1nccs1 | -6% | 0.95
Cc1cc(N2CCN(C(c3ccccc3)c3ccccc3)CC2)n2nc(C(F)(F)F)nc2n1 | -7% | 0.82
Cc1cccnc1NCCNc1nc2c(s1)c(C)nn2C | -6% | 0.99
CC(C)(C)c1nnc(CN2CCC[C@@H]2CN2CCCC2)o1 | -16% | 3.04
CCNC(=O)N1CCC[C@H](n2c(=O)n(C)c3cncnc32)C1 | -8% | 0.78
CCOC[C@H]1CCN(C(=O)c2cccc3c2C(=O)OC3(C)C)C1 | -9% | 1.48
COC(=O)c1cc(C(=O)OC)c(C(=O)OC)c(-c2c(-c3ccccc3)c(C)c3ccccn23)c1C(=O)OC | -12% | 2.22
Cc1cccc(N(C)C(=O)c2c(C)oc3ncn(C)c(=O)c23)c1 | -3% | 0.43

SMILES | % Inhibition | Z score
CC(C)OCc1ccccc1NC(=O)[C@H](O)c1ccccc1 | -14% | 1.22
COC[C@H](C)N(C)C(=O)c1ccc(-c2ccc3c(c2)OCCO3)s1 | -28% | 5.25
Cc1noc(C)c1CC(=O)N1CC(F)(F)C[C@H]1Cn1cc(C(=O)N2CCOCC2)nn1 | 27% | -3.1
CC(C)Cc1ccc([C@@H](N)c2cccs2)cc1 | -7% | 0.91
O=C1NC(=O)C2(CCN(C(=O)C3CC4CCC3C4)CC2)N1 (stereo not drawn) | 35% | -0.89
O=C(NCc1cccnc1N1CCN(c2ccccn2)CC1)c1cc(=O)[nH][nH]1 | 0% | -0.08
NCC1CCN(C(=O)c2ccc(Oc3ccc(F)cc3F)cc2)CC1 | -10% | 1.18
COc1cc(NC(=O)c2ocnc2C(F)F)c(C(=O)N2CCCC2)cc1OC | -16% | 2.84
O=C(NS(=O)(=O)CCC1CCCC1)C1CC1C1CC1 (stereo not drawn) | -7% | 1.07
Cc1nc2ccc(C(=O)N3CCC(=O)N(C)CC3)cc2o1 | 16% | -2.16
CCC[C@H]1COCCN1C(=O)Nc1cc(C(=O)OC)cc(C(=O)OC)c1 | 2% | -0.24
COCC(=O)N1CCN(c2nc3ccc(C)cc3c3nnc(C4CCCCC4)n23)CC1 | 3% | -0.3
O=C(c1ccc2ccccc2c1)N1CCCN(C[C@H]2CN(C(=O)c3ccc4c(c3)OCO4)CCO2)CC1 | -5% | 0.6
CC(C)c1nccc(CN2CC(c3cccnc3)C2)n1 | 7% | -1.28
O=C(Cc1c[nH]c2ccccc12)NC1(c2ncccn2)CCOCC1 | -20% | 3.68
Cc1cccc(-n2cnc(C(=O)NC3CCCCCC3)c2)n1 | -1% | 0.14
Cn1nc(CNC(=O)c2cccc(Cl)c2)cc1-c1ccco1 | -18% | 2.03
Cc1ccc2c(c1)OC=CC(C(=O)NC1CCCC1)=C2 | 0% | 0.04
CN(Cc1nc(-c2cccs2)no1)C(=O)[C@H]1CCCN(S(C)(=O)=O)C1 | -12% | 1.64
NC(=O)[C@@H]1C[C@@H](F)CN1C(=O)c1cnc(OCC2CC2)c(Cl)c1 | -12% | 1.71
COc1ccccc1C1(CNC(=O)c2coc(Br)c2)CCOCC1 | 1% | -0.16

SMILES | % Inhibition | Z score
O=c1[nH]c(NS(=O)(=O)c2ccccc2)nc2nc(-c3ccccc3)oc12 | -6% | 0.75
O=C(c1cc(O)ccn1)N1CC(Cc2ccccc2)C1 | -7% | 1.31
CC(C)(C)c1ncc2c(n1)CCN([C@@H](C(=O)O)c1ccsc1)C2 | -4% | 0.48
CC1=C(C(=O)N[C@@H](C)CC(=O)NC(C)C)CCCO1 | -2% | 0.31
Cc1c(CN(C)C(=O)C2CCOCC2)[nH]c2ccccc12 | -14% | 1.92
CC(C)OCCN1CCN(C(=O)Nc2ccc(C(F)(F)F)nc2)CC1 | -23% | 3.06
O=C(Cc1ccc(-c2ccccc2)cc1)NC(C1CC1)C1CC1 | 0% | 0.04
COc1ccc(S(=O)(=O)N2CCC(n3nnc4ccccc4c3=O)CC2)cc1 | -18% | 2.39
COC[C@H]1CCCN1[C@@H]1[C@H](O)[C@H](CO)O[C@@H]1CNS(=O)(=O)c1ccc(OC)cc1 | -15% | 1.92
CCO[C@@H](CNC(=O)c1c[nH]nc1-c1ccsc1)c1ccccc1 | -8% | 1.05
CCCNc1ncc(CN2CCC(OCc3ccccn3)CC2)cn1 | -14% | 2.42
O=C1CN(C(=O)c2cccc(NC(=O)CCn3ccc4ccc(Cl)cc43)c2)CCN1 | -18% | 2.28
C[C@@H](C(=O)N(C)c1ccnn1C)c1ccc(Cl)s1 | -15% | 2.18
CC[C@@H](CO)NC(=O)C(=O)Nc1ccc(OC)cc1OC | -15% | 2.39
O=C(Cc1ccc(Cl)cc1)N1CCC(c2nc3ccccc3o2)CC1 | -17% | 1.53
FC(F)COC1CN(Cc2cnc3ccc(Br)cn23)C1 | -16% | 2.3
CCNC(=O)[C@@H]1C[C@@H](N)CN1C(=O)c1scc2c1CCCC2 | -2% | 0.32
Cc1sc(C=Cc2cncc(Br)c2)nc1C(=O)O | -15% | 2.34
CC1CCC(C(N)=O)CN1CC(=O)N1CCC(Cc2ccccc2)CC1 (stereo not drawn) | -1% | 0.18
CO[C@@H](C)C(=O)Nc1cnccc1CO | 6% | -0.63
Cc1ccc(NC(=O)CN(CC2CCCO2)CC2CCCO2)c(Cl)c1 (stereo not drawn) | -13% | 2.35

Source: ChEMBL document CHEMBL4888484, “Replenishing the malaria drug discovery pipeline: Screening and hit evaluation of the MMV Hit Generation Library 1 (HGL1) against asexual blood stage Plasmodium falciparum ,using a nano luciferase reporter read-out” (2022)
